# The supplement of paper PMC8728848
# This is one part of the list.
# Experiments:
# Test in all cases: glycan array binding signal (z-score within array); higher = stronger binding
# Conditions in all cases: glycan notation: IUPAC condensed, linker removed; mutation: R343A
# [1] = target: Fuc(a1-2)[GalNAc(a1-3)]Gal(b1-4)[Fuc(a1-3)]GlcNAc
# How it was run: (§1)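 From the Consortium for Functional Glycomics database, 3228 arrays were curated, keeping only those whose protein sequence was available. Binding is given as a within-array Z-score averaged across arrays sharing a protein sequence and across linkers. Negative Z-scores can be read as non-binding.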
# [2] = target: Fuc(a1-2)[GalNAc(a1-4)]Gal(b1-4)GlcNAc
# How it was run: as §1
# [3] = target: Fuc(a1-2)[GalNAc(b1-3)]Gal
# How it was run: as §1
# [4] = target: Fuc(a1-3)GlcNAc
# How it was run: as §1
# [5] = target: Fuc(a1-3)[Gal(b1-4)]Glc6S
# How it was run: as §1
# [6] = target: Fuc(a1-3)[Gal(b1-4)]GlcNAc
# How it was run: as §1
# [7] = target: Fuc(a1-3)[Gal(b1-4)]GlcNAc(b1-2)Man(a1-3)[Fuc(a1-3)[Gal(b1-4)]GlcNAc(b1-2)Man(a1-6)]Man(b1-4)GlcNAc(b1-4)GlcNAc
# How it was run: as §1
# [8] = target: Fuc(a1-3)[Gal(b1-4)]GlcNAc(b1-2)Man(a1-6)[Gal(b1-4)GlcNAc(b1-2)Man(a1-3)]Man(b1-4)GlcNAc(b1-4)GlcNAc
# How it was run: as §1
# [9] = target: Fuc(a1-3)[Gal(b1-4)]GlcNAc(b1-3)Gal(b1-3)[Fuc(a1-4)]GlcNAc
# How it was run: as §1
# [10] = target: Fuc(a1-3)[Gal(b1-4)]GlcNAc(b1-4)Gal(b1-4)[Fuc(a1-3)]GlcNAc
# How it was run: as §1
# [11] = target: Fuc(a1-3)[Gal(b1-4)]GlcNAc(b1-4)Gal(b1-4)[Fuc(a1-3)]GlcNAc(b1-4)Gal(b1-4)[Fuc(a1-3)]GlcNAc
# How it was run: as §1
# [12] = target: Fuc(a1-3)[Gal(b1-4)]GlcNAc6S
# How it was run: as §1
# [13] = target: Fuc(a1-3)[Gal3S(b1-4)]Glc6S
# How it was run: as §1
# [14] = target: Fuc(a1-3)[Gal3S(b1-4)]GlcNAc
# How it was run: as §1
# [15] = target: Fuc(a1-3)[Gal3S(b1-4)]GlcNAc6S
# How it was run: as §1
# [16] = target: Fuc(a1-3)[GalNAc(b1-4)]GlcNAc
# How it was run: as §1
# [17] = target: Fuc(a1-4)GlcNAc
# How it was run: as §1
# [18] = target: Fuc(b1-3)GlcNAc
# How it was run: as §1
# [19] = target: Gal(a1-2)Gal
# How it was run: as §1
# [20] = target: Gal(a1-3)Gal
# How it was run: as §1
# [21] = target: Gal(a1-3)Gal(b1-3)GlcNAc
# How it was run: as §1
# [22] = target: Gal(a1-3)Gal(b1-4)Glc
# How it was run: as §1
# [23] = target: Gal(a1-3)Gal(b1-4)GlcNAc
# How it was run: as §1
# [24] = target: Gal(a1-3)Gal(b1-4)[Fuc(a1-3)]GlcNAc
# How it was run: as §1
# [25] = target: Gal(a1-3)GalNAc
# How it was run: as §1
# [26] = target: Gal(a1-3)[Gal(a1-4)]Gal(b1-4)GlcNAc
# How it was run: as §1
# [27] = target: Gal(a1-4)Gal(b1-4)Glc
# How it was run: as §1
# [28] = target: Gal(a1-4)Gal(b1-4)GlcNAc
# How it was run: as §1
# [29] = target: Gal(a1-4)GlcNAc
# How it was run: as §1
# [30] = target: Gal(a1-6)Glc
# How it was run: as §1
binder,measurement,setting,value
Surfactant Protein D (Human); Neck + Carbohydrate Recognition Domain (NCRD) (Homo sapiens) (protein) MLLFLLSALVLLTQPLGYLEAEMKTYSHRTMPSACTLVMCSSVESGLPGRDRDGREGPRGEKGDPGLPGAAGQAGMPGQAGPVGPKGDNGSVGEPGPKGDTGPSGPPGPPGVPGPAGREGALGKQGNIGPQGKPGPKGEAGPKGEVGAPGMQGSAGARGLAGPKGERGVPGERGVPGNTGAAGSAGAMGPQGSPGARGPPGLKGDKGIPGDKGAKGESGLPDVASLRQQVEALQGQVQHLQAAFSQYKKVELFPNGQSVGEKIFKTAQFVKPFTEAQLLCTQAGGQLASPRSAAENAALQQLVVAKNEAAFLSMTDSKTEGKFTYPTGESLVYSNWAPGEPNDDGGSEDCVEIFTNGKWNDAACGEKRLVVCEF,glycan array binding signal (z-score),[1],-0.132
same,glycan array binding signal (z-score),[2],-0.356
same,glycan array binding signal (z-score),[3],-0.204
same,glycan array binding signal (z-score),[4],-0.251
same,glycan array binding signal (z-score),[5],-0.066
same,glycan array binding signal (z-score),[6],-0.148
same,glycan array binding signal (z-score),[7],-0.178
same,glycan array binding signal (z-score),[8],-0.182
same,glycan array binding signal (z-score),[9],-0.26
same,glycan array binding signal (z-score),[10],-0.082
same,glycan array binding signal (z-score),[11],-0.333
same,glycan array binding signal (z-score),[12],0.034
same,glycan array binding signal (z-score),[13],0.22
same,glycan array binding signal (z-score),[14],0.184
same,glycan array binding signal (z-score),[15],0.084
same,glycan array binding signal (z-score),[16],-0.375
same,glycan array binding signal (z-score),[17],-0.016
same,glycan array binding signal (z-score),[18],-0.211
same,glycan array binding signal (z-score),[19],-0.106
same,glycan array binding signal (z-score),[20],-0.219
same,glycan array binding signal (z-score),[21],-0.065
same,glycan array binding signal (z-score),[22],-0.2
same,glycan array binding signal (z-score),[23],-0.344
same,glycan array binding signal (z-score),[24],-0.101
same,glycan array binding signal (z-score),[25],-0.163
same,glycan array binding signal (z-score),[26],-0.393
same,glycan array binding signal (z-score),[27],-0.289
same,glycan array binding signal (z-score),[28],-0.297
same,glycan array binding signal (z-score),[29],-0.359
same,glycan array binding signal (z-score),[30],-0.319
